“And” between values parts separate entries of the source, which are not always exact repeats. Identical values can stand only once. Among all 400,000 compounds or so, about 2,200 (0.55%) were called active. Inconclusive results (about 1%) are left out. Calls come from the whole dose curve; as a rule, active = well fitted inhibition curve with a large enough effect; inconclusive = small, poorly fitted or top-dose-only effect, or another doubt; inactive = no such curve, though single readings can be large or run the other way. The entries are a selection whose mix differs from that of the whole data set. Where a structure was tested more than once in an assay, its records may differ in their call.
% is set by controls: 0 for no effect and ±100 for the full control effect; potency is the fitted concentration of half-maximal effect.

UniProt Q9UBT6, sequence (Q9UBT6 whole entry, looked up): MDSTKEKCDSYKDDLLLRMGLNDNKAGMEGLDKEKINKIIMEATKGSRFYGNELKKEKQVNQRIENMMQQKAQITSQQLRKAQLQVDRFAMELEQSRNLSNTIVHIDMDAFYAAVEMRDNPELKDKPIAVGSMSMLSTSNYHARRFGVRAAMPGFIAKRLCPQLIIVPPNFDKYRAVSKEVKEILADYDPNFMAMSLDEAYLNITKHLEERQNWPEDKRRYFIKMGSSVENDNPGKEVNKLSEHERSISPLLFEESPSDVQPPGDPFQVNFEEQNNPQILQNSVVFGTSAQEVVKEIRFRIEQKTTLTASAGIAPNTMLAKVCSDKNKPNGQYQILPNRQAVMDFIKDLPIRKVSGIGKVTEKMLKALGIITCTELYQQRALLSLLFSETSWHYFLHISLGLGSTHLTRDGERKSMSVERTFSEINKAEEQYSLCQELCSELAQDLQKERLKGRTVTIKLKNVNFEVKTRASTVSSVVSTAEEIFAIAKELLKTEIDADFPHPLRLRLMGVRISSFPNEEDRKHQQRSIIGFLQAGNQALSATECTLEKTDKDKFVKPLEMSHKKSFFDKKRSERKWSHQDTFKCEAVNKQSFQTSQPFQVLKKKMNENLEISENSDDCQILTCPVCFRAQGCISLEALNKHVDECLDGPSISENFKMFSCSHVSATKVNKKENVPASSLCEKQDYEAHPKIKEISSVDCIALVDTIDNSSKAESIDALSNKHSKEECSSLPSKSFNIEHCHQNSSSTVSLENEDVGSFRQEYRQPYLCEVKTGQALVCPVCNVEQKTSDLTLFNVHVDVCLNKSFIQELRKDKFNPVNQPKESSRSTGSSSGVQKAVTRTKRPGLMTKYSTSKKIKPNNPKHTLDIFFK

This assay deals with DNA polymerase kappa (Homo sapiens) (UniProt Q9UBT6). Description: qHTS for Inhibitors of Polymerase Kappa. To be noted: purified Pol kappa, fluorescent DNA synthesis assay, 10 min; series mostly up to 60.1 µM; activity, negative = inhibition: at the top concentration. Here is the method:
The processing and repair of DNA interstrand crosslinks (ICL) in eukaryotic cells are extremely complex, potentially involving multiple DNA repair and damage tolerance pathways, including homologous recombination, nucleotide excision repair, translesion synthesis (TLS), and cell cycle checkpoints.
To that end, in a collaboration between the Oregon Health & Science University and the NIH Chemical Genomics Center a 1536-well high-throughput screen was developed. This fluorescent screen was assayed against the NIH Molecular Libraries Small Molecule Repository (MLSMR) to discover inhibitors of Pol Kappa.
NIH Chemical Genomics Center [NCGC]
NIH Molecular Libraries Probe Centers Network [MLPCN]
Assay Submitter (PI): Stephen Lloyd, Oregon Health & Science University
Three microliters of reagents (buffer in column 3 and 4 as negative control and 10 nM Pol kappa in columns 1, 2, and 5-48) were dispensed into a 1536-well black solid-bottom plate. Compounds (23 nL) were transferred via Kalypsys pin tool equipped with 1536-pin array. The plates were then incubated for 15 min at room temperature, and 1 uL substrate (50 nM final concentration) were then added to start the reaction and kinetically read twice at 0 min and 10 min on the Viewlux reader
(In general: Quantitative high-throughput screening tests each substance at several concentrations.)
`O[C@H]1[C@H](O)[C@@H](O)CN2CC[C@H](O)[C@H]12`: the Potency entry was “inactive”. For the compound `CN1C[C@H](C(=O)N[C@]2(C)O[C@@]3(O)[C@@H]4CCCN4C(=O)[C@H](Cc4ccccc4)N3C2=O)C=C2c3cccc4[nH]cc(c34)C[C@H]21`, the “activity, negative = inhibition” value was inactive: -19.2%. On to `Cc1cc(/C=C2/C(=O)NC(=O)N(Cc3ccco3)C2=O)c(C)n1-c1ccc(C(=O)O)cc1`, for which the Potency was active: 50.1 µM. As to `CC(C)C[C@H]1C(=O)N2CCC[C@@H]2[C@]2(O)O[C@](NC(=O)[C@H]3C=C4c5cccc6[nH]c(Br)c(c56)C[C@H]4N(C)C3)(C(C)C)C(=O)N12`, the activity, negative = inhibition is inactive: -2.88% [at 12 µM]. As for `C=CCN1C(=O)/C(=C/c2ccc(Br)s2)C(=O)NC1=S`, the Potency was active: 79.4 µM. As to `O[C@@H]1[C@H](O)[C@H]2[C@@H](O)CCN2C[C@@H]1O`, the “activity, negative = inhibition” value is inactive: -6.2% [at 19.4 µM]. For the compound `C=C(C)[C@H]1CN[C@H](C(=O)O)[C@@H]1CC(=O)O`, the “activity, negative = inhibition” value was inactive: -3.34% [at 19.4 µM]. For `C[C@H](CCC(=O)O)[C@H]1CC[C@@H]2[C@@H]3[C@@H](O)C[C@H]4C[C@@H](O)CC[C@@]4(C)[C@H]3CC[C@@]21C`, the “activity, negative = inhibition” value was inactive: -4.26% [at 19.4 µM]. For the compound `CC(C)C[C@H]1C(=O)N2CCC[C@@H]2[C@]2(O)O[C@](NC(=O)[C@@H]3C=C4c5cccc6[nH]c(Br)c(c56)C[C@H]4N(C)C3)(C(C)C)C(=O)N12`, the “activity, negative = inhibition” value is inactive: -11.9% [at 19.4 µM]. For `CC(C)C1C(=O)O[C@@H]2CCN3CC=C(COC(=O)[C@](C)(O)[C@]1(C)O)[C@H]23` (stereo not given in full), the “activity, negative = inhibition” value was inactive: 17.8%.

As to `CCCCCCCCCCCCCC(=O)OC1C(C)[C@@]2(O)C(C=C(CO)C[C@]3(O)C(=O)C(C)=C[C@H]23)[C@@H]2C(C)(C)[C@]12OC(C)=O` (stereo not given in full), the “activity, negative = inhibition” value is inactive: -13.1%. With `CC(C)=CCN1CC[C@@]2(C)c3cc(O)ccc3C[C@@H]1C2C` (stereo not given in full), the “activity, negative = inhibition” value is inactive: -19.9% [at 107 µM]. `COC(C)(C)CCCC(C)C/C=C/C(C)=C/C(=O)OC(C)C` (stereo not given): the Potency result is “inactive”. Turning to `N[C@@H](Cn1oc(=O)[nH]c1=O)C(=O)O`, the Potency entry was “inactive”. In the case of `CCOC(=O)C1=C(N)Oc2c(c(=O)oc3ccccc23)C12C(=O)N(C)c1ccccc12` (stereo not given), the “activity, negative = inhibition” value is inactive: -22.6% [at 107 µM]. On to `C[C@H](CCC(=O)O)[C@H]1CC[C@H]2[C@@H]3[C@@H](O)C[C@@H]4C[C@H](O)CC[C@]4(C)[C@H]3CC[C@]12C`, for which the “activity, negative = inhibition” value was inactive: -14.4% [at 107 µM]. With `O=C(O)COc1nc(Cl)c(Cl)cc1Cl`, the “activity, negative = inhibition” value is inactive: 12.3%. Regarding `CN1C[C@H](CNC(=O)OCc2ccccc2)C[C@H]2c3cccc4c3c(cn4C)C[C@@H]21`, the Potency entry is “inactive”. Regarding `CCCCC/C=C\C/C=C\C/C=C\C/C=C\CCCC(=O)NCc1ccc(O)c(OC)c1`, the “activity, negative = inhibition” value was inactive: -16.7% [at 19.4 µM]. In the case of `CN(C)c1ccc(/C=C/c2cc[n+](C)c3ccccc23)cc1`, the Potency result was “inactive”. Consider `O=C(Nc1cc[c]([Sb](=[O])([OH])[OH])cc1)c1ccccc1`, for which the Potency is active: 6.31 µM. With `CN(N=O)c1ccc(O)c(O)c1`, the Potency was active: 2.38 µM. On to `CNCCc1ccc(O)c(O)c1`, for which the “activity, negative = inhibition” value is inactive: 2.77% [at 107 µM]. With `COC[C@H]1OC(=O)c2coc3c2[C@@]1(C)C1=C(C3=O)[C@@H]2CCC(=O)[C@@]2(C)C[C@H]1OC(C)=O`, the Potency entry was “inactive”. Take `CC1=NCCc2c1[nH]c1cc(O)ccc21`: the Potency entry was “inactive”. On to `O=[N+]([O-])c1cc(O)c(O)c([N+](=O)[O-])c1`, for which the Potency was active: 3.16 µM and active: 15.8 µM. On the same count and under the same terms, in the case of `O=C(CO)C(O)C(O)C(O)CO` (stereo not given) it was “inactive”; in that of `COc1ccc(CN2C(=O)NC(=O)/C(=C/c3ccc([N+](=O)[O-])s3)C2=O)cc1`, active: 22.4 µM.

Take `NCCc1ccc(S(=O)(=O)F)cc1`: the “activity, negative = inhibition” value is inactive: 8.34%. For `CC(C)N(CCC(C(N)=O)(c1ccccc1)c1ccccn1)C(C)C` (stereo not given), the Potency result was “inactive”.

Turning to `Cc1cccc(N2CCc3c2nc2ccccc2c3N)c1`, the “activity, negative = inhibition” value is inactive: 4.32% [at 107 µM]. As for `CC1=C(O)C(=O)C=C2C1=CC=C1C2(C)CCC2(C)C3CC(C)(C(=O)O)CCC3(C)CCC12C` (stereo not given), the Potency is active: 31.6 µM. Take `CN(C)C1C(=O)C(C(N)=O)=C(O)[C@@]2(O)C(=O)C3=C(O)c4c(O)cccc4[C@@](C)(O)C3C[C@@H]12` (stereo not given in full): the “activity, negative = inhibition” value is inactive: -12% [at 19.4 µM]. On to `CN1Cc2ccccc2[C@@H]2c3cccc4[nH]cc(c34)C[C@H]21`, for which the “activity, negative = inhibition” value is inactive: -11.3% [at 19.4 µM]. Take `CC12CCC3c4ccc(OC(=O)N(CCCl)CCCl)cc4CCC3C1CCC2O` (stereo not given): the “activity, negative = inhibition” value is inactive: -4.9% [at 107 µM]. As to `Oc1ccc2c3c1O[C@H]1c4oc5ccccc5c4C[C@@]4(O)C(C2)N(CC2CC2)CC[C@]314`, the “activity, negative = inhibition” value is inactive: -0.17% [at 19.4 µM]. Still for that read-out and setting: in the case of `CC(N)C(=O)NCC(=O)NC1CSSCC(C(=O)O)NC(=O)C(CO)NC(=O)C(C(C)O)NC(=O)C(Cc2ccccc2)NC(=O)C(C(C)O)NC(=O)C(CCCCN)NC(=O)C(Cc2c[nH]c3ccccc23)NC(=O)C(Cc2ccccc2)NC(=O)C(Cc2ccccc2)NC(=O)C(CC(N)=O)NC(=O)C(CCCCN)NC1=O` (stereo not given) it was inactive: 1.35% [at 19.4 µM]. Still for that read-out and setting: in the case of `CCCCC/C=C\C/C=C\C/C=C\C/C=C\CCCC(=O)Nc1ccc(O)cc1C` it was inactive: -17.7% [at 12 µM]. With `C=C(C)[C@H]1CN[C@H](C(=O)O)[C@H]1CC(=O)O`, the Potency result is “inactive”. Turning to `CN(C)[C@@H]1C(=O)C(C(N)=O)=C(O)[C@]2(O)C(=O)C3=C(O)c4c(O)ccc(Cl)c4[C@](C)(O)[C@H]3C[C@@H]12`, the activity, negative = inhibition was inactive: -7.47% [at 12 µM].

The values are drawn from PubChem BioAssay AID588579 (National Center for Advancing Translational Sciences (NCATS), 2011).
